In paper PMC7819943, “Rice protein-binding microarrays: a tool to detect cis-acting elements near promoter regions in rice”:
The other results are listed elsewhere or left out.

Molecular target: T1, OsWOX13 (Oryza sativa, UniProt Q5QMM3 1-267)
T1 sequence: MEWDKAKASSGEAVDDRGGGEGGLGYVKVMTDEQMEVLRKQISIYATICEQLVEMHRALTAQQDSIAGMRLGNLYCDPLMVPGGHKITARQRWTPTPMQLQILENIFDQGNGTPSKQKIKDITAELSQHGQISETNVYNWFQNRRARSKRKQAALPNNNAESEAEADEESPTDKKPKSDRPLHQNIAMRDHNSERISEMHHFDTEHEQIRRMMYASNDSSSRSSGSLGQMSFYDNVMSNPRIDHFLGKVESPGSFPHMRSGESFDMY
Test: protein-binding microarray (RPBM); PBS, 2% BSA, 51.3 ng/ul salmon testes DNA, 50 uM zinc acetate, 200 nM TF, 25 C, 1 h; high values mean tight binding
Details: protein: recombinant; tags: N-terminal polyhistidine and DsRed monomer fusion (pET32a); label: CyDye5-dUTP incorporated in the synthesized complementary strand; 3' TTTTT single-stranded linker to array surface; dsDNA, one strand shown
In short: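 The binding signal is fluorescence intensity per array feature (arbitrary units). Readings came from an Axon 4000B scanner after a washed, 2% BSA-blocked, double-stranded custom Agilent array had been incubated for 1 h at 25 °C with 200 nM protein and 50 µM zinc acetate. The protein was a Ni–NTA-purified transcription factor fused N-terminally to polyhistidine and DsRed, expressed in E. coli BL21-CodonPlus.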

| Sequence | binding signal |
| --- | --- |
| TTAATTAATCGATGAGAATCAATTTCATAATCATGGAGGTCGGAGTCACCTAGTGCAG | 5880 fluorescence intensity (a.u.) |
| GAGGATTTGAAGCCTGATTATATTTTAATCTTGTTGTACACGGAGTCACCTAGTGCAG | 12100 fluorescence intensity (a.u.) |
| TTAAAATTTCTCGTGTCAATTTCAACGCTAGCATTGGCATCGGAGTCACCTAGTGCAG | 5900 fluorescence intensity (a.u.) |
| AAATATTGACAGATACAGCTACATGGGCATATGAGCTTAGCGGAGTCACCTAGTGCAG | 30200 fluorescence intensity (a.u.) |
| CATGCAATTATGAGTTAGCTTAACTTCCTGAGTTCAATTGCGGAGTCACCTAGTGCAG | 3220 fluorescence intensity (a.u.) |
| TTACATTTAATTATTTGATAAAATTTGTTCGTATGTCATTCGGAGTCACCTAGTGCAG | 19700 fluorescence intensity (a.u.) |
| TTTGATAAACTAAACTATTTATAAAACAATAAATATCTCACGGAGTCACCTAGTGCAG | 8190 fluorescence intensity (a.u.) |
| ATAATAATTTACTCCCGTCTGTCATTGGTGGTTTATATTGCGGAGTCACCTAGTGCAG | 23900 fluorescence intensity (a.u.) |
| GCGCTATATCAATCAAAATACTGCCGCGGGATCTTGTTTGCGGAGTCACCTAGTGCAG | 18800 fluorescence intensity (a.u.) |
| TTTCAATAGATTGAGGTTTAATATGTCTGTTTTGTGGTTCCGGAGTCACCTAGTGCAG | 40500 fluorescence intensity (a.u.) |
| TTAGTATGTGATTAATTTAGTATTAATTATTTAACTATAACGGAGTCACCTAGTGCAG | 19800 fluorescence intensity (a.u.) |
| TGATTGATGATTAAATAAAATTAGTACCTAAGCAGCCACGCGGAGTCACCTAGTGCAG | 29700 fluorescence intensity (a.u.) |
| GCTTCCTGATAGAAATCGCAGATGACACTGTGCCCAAACGCGGAGTCACCTAGTGCAG | 5020 fluorescence intensity (a.u.) |
| TGACGACGTGATTATACGCACCGAATGTCTGAATTCCATTCGGAGTCACCTAGTGCAG | 5150 fluorescence intensity (a.u.) |
| AAATGCCTAAATTTGGCTCATGACTGCCATCGATGCTCTTCGGAGTCACCTAGTGCAG | 3940 fluorescence intensity (a.u.) |
| GCATATAATTTAAGTAATCATTTCTCCTAGATTTGCATTGCGGAGTCACCTAGTGCAG | 25400 fluorescence intensity (a.u.) |
| GTTCATTGATGAGTGTGTAACTATACTAGGTTGCTTGCTTCGGAGTCACCTAGTGCAG | 4230 fluorescence intensity (a.u.) |
| TGTAATACATTAATTTATACCAGGTTTAAAATCAAAACTCCGGAGTCACCTAGTGCAG | 8440 fluorescence intensity (a.u.) |
| CTAATTGATGCATGCTAGTTTGTTGGAGAAAGAACAGACACGGAGTCACCTAGTGCAG | 32900 fluorescence intensity (a.u.) |
| CAAAATGTAAATTATATATCACAATCATATTTCTCATGTTCGGAGTCACCTAGTGCAG | 15400 fluorescence intensity (a.u.) |
| ATTTGATTTGTACGGTCGATTTAGTTAATTTGGATGTAGACGGAGTCACCTAGTGCAG | 42100 fluorescence intensity (a.u.) |

| Sequence | binding signal |
| --- | --- |
| GGAATTAGACGACCTTTTCTACATGCATATAGTACTTGACCGGAGTCACCTAGTGCAG | 4400 fluorescence intensity (a.u.) |
| TTTGATGACAATGTGATGAGATGTCTCCAAAGGAAGCCTACGGAGTCACCTAGTGCAG | 24400 fluorescence intensity (a.u.) |
| TTTATCGTCAATCAAATTGTTGTCTTGGCCTTCGTTCGGACGGAGTCACCTAGTGCAG | 23500 fluorescence intensity (a.u.) |
| AGTTAATTAATCAGGTGCTTGCCAGCCATGAATGGACCATCGGAGTCACCTAGTGCAG | 36500 fluorescence intensity (a.u.) |
| CCCACCTATATATAATTGCCTCATCTCCTCTTCTTCCCTCCGGAGTCACCTAGTGCAG | 3710 fluorescence intensity (a.u.) |
| ATATGATAGAATGGAACTACTAAAAGTAAGAGGAGGGTCACGGAGTCACCTAGTGCAG | 13200 fluorescence intensity (a.u.) |
| ATCTATCCTCTCCAATCATAAATCCTTGATGTTTTGAATTCGGAGTCACCTAGTGCAG | 7610 fluorescence intensity (a.u.) |
| TCCTTAAATTTGTAGGGTTGTGTCATATAGGTCCCTAAACCGGAGTCACCTAGTGCAG | 5800 fluorescence intensity (a.u.) |
| GTAGCCTTTAATTAAGAGTGATATTTTATTGAATCCTCCTCGGAGTCACCTAGTGCAG | 5280 fluorescence intensity (a.u.) |
| CAGATTTGATGAAGATGGTGGCCACTGCTTCCTCAATGCACGGAGTCACCTAGTGCAG | 8250 fluorescence intensity (a.u.) |
| AAATCATTAATAGTGCGTGATTAATTGAGTATTAATTATTCGGAGTCACCTAGTGCAG | 8480 fluorescence intensity (a.u.) |
| CAATGATGTTGATGTATTATTATTAAACAATGATATTGATCGGAGTCACCTAGTGCAG | 4250 fluorescence intensity (a.u.) |
| AAATGATTTGATCTAAATTGATAAGTTACTGAGGAGTGCGCGGAGTCACCTAGTGCAG | 64800 fluorescence intensity (a.u.) |
| GTCTAATTGTGATTTTATATTTTAATTAATTATATATTGTCGGAGTCACCTAGTGCAG | 34800 fluorescence intensity (a.u.) |
| CATGAATTGGAAGATTTGATGCACTGATACTCCATGAAGACGGAGTCACCTAGTGCAG | 8060 fluorescence intensity (a.u.) |
| ATAGATAGATAGATCGCTCCGCACATACTATGGTGCTCACCGGAGTCACCTAGTGCAG | 12500 fluorescence intensity (a.u.) |
| ACGATAATTAGTAGTAGTACCCAACTCGAGGAGGTGGAGACGGAGTCACCTAGTGCAG | 20800 fluorescence intensity (a.u.) |
| ACAAAGTAATTAAACAAAAGTAGTATATATATACCTTTATCGGAGTCACCTAGTGCAG | 5480 fluorescence intensity (a.u.) |
| AGAAAACTAATTATAGAGTATATATAAAGCTGTACACGAGCGGAGTCACCTAGTGCAG | 5750 fluorescence intensity (a.u.) |
| AATGAAAACTAATTAAGGCTTAAAATCCAAATTTGAGGGCCGGAGTCACCTAGTGCAG | 7030 fluorescence intensity (a.u.) |
| GATGTGGGATGGATTTGTGGTGATTGAGAGGGTTTGAAAGCGGAGTCACCTAGTGCAG | 17800 fluorescence intensity (a.u.) |
